Reference: PubChem BioAssay AID2546 (National Center for Advancing Translational Sciences (NCATS), 2010)
About 11,000 (3.5%) of roughly 310,000 compounds were called active. This list was built around the results that the source calls inconclusive (neither active nor inactive); the mix of calls is not that of the screen. Calls come from the whole dose curve; as a rule, active = well fitted inhibition curve with a large enough effect; inconclusive = small, poorly fitted or top-dose-only effect, or effect the other way; inactive = flat fitted curve, though single readings scatter. Potencies of inconclusive entries are left out as doubtful fits.

Experiment: VP16 counterscreen qHTS for inhibitors of ROR gamma transcriptional activity;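 note: Gal4-VP16 expression switched on by copper sulfate through the metallothionein promoter; nearly all actives have a fitted effect of over 50% in size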
Details: Drosophila S2 Gal4-VP16 UAS-luciferase, luminescence, 20 h; activity, negative = inhibition: at 53.6 µM (top of the series)
% is set by controls: 0 for no effect and ±100 for the full control effect; potency is the fitted concentration of half-maximal effect; tags give direction and shape of the fitted curve.

SMILES | Potency | activity, negative = inhibition
CCC(=O)c1ccc(N2CCN(C(=O)COc3ccc(F)cc3)CC2)c(F)c1 | inconclusive [inhibitor, single point] | 
CCOc1cc(NC(=S)NCC2CCCO2)c(OCC)cc1NC(=O)c1ccc(C)cc1 (stereo unspecified) | active: 3.98 µM | 
C/C(=N\NC(=S)NC1CCCCC1)c1ccc(OC(F)F)cc1OC(F)F | inconclusive [inhibitor, single point] | 
CCOCCn1c(CN2CCN(c3ccc(F)cc3)CC2)nc2c1c(=O)n(C)c(=O)n2C | inconclusive [inhibitor, single point] | 
CCOC(=O)c1cnc(-n2nc(C)cc2C)nc1N(C)C | active: 4.47 µM | 
COC(=O)Cc1ccc(NC(=O)c2ccc(C(C)(C)C)cc2)cc1 | inconclusive [inhibitor, partial curve] | 
C=CCn1c(-c2ccc(OC)c(OC)c2)n[nH]c1=S | inconclusive [inhibitor, single point] | 
O=C(NCc1ccco1)c1ccc2c(=O)n(-c3ccccc3)c(=S)[nH]c2c1 |  | inactive: -4.88%
Cc1cccn2c(=O)c3cc(C(=O)N4CCCCC4)sc3nc12 | inconclusive [inhibitor, single point] | 
Cc1cnc(C(=O)Nc2ccc(N3CCOCC3)cc2)cn1 | inconclusive [activator, partial curve, poor fit] | 
O=C(CSc1ccc2nnc(-c3ccccn3)n2n1)Nc1ccc(F)cc1F |  | inactive: 2.13%
O=S(=O)(c1ccc(NC(=S)NN=C2CCCCC2)cc1)N1CCOCC1 | inconclusive [inhibitor, single point] | 
CCn1c(-c2ccc(-c3ccccc3)cc2)c[nH]c1=S | active: 1.58 µM | 
COc1ccc(-n2nc(C(=O)Nc3ccc4c(c3)OCO4)c3ccccc3c2=O)cc1 |  | inactive: -10.1%
Clc1ccc2c(c1)N=C(N1CCNCC1)c1ccccc1N2 |  | inactive: 5.36%
O=C(N/N=C/C=C\c1ccco1)c1cccs1 | inconclusive [activator, single point] | 
CNC(=O)c1[nH]cnc1C(=O)N[C@@H](Cc1ccccc1)C(=O)OC(C)(C)C | inconclusive [inhibitor, single point] | 
CCOc1cccc(CN2CCCC(N3CCN(c4cccc(Cl)c4)CC3)C2)c1O (stereo unspecified) |  | inactive: -15.5%
Cc1cccc(-c2noc(-c3ccccc3C(=O)NCc3ccco3)n2)c1 | inconclusive [inhibitor, single point] | 
COc1ccc(CN(CCC#N)C(=S)NC(=O)c2ccccc2)cc1 | active: 0.562 µM | 
COc1ccc(-c2[nH]ncc2/C=C(/C#N)C(=O)NC2CCCCCC2)cc1 | inconclusive [inhibitor, single point] | 
COC(=O)N/N=C/c1cc(N=Nc2ccccc2Cl)ccc1O | active: 15.8 µM | 
O=C(N/C(=C/c1ccccc1F)C(=O)N1CCCCC1)c1ccccc1 |  | inactive: -10.2%
COc1cccc(C2C=C(c3cccs3)Nc3ncnn32)c1OC (stereo unspecified) | inconclusive [inhibitor, single point] | 
Cc1cccn2c(=O)c3cc(C(=O)NCC4CCCO4)c(=N)n(C4CCCCC4)c3nc12 (stereo unspecified) |  | inactive: 4.49%
C/C(=N\NC(=O)c1cccc(Br)c1)c1ccccn1 | active: 0.0282 µM | 

SMILES | Potency | activity, negative = inhibition
CC(=O)NNc1nc(-c2ccccc2)cs1 |  | inactive: -6.39% [at 10 µM]
O=C(Cc1ccc(F)cc1)Nc1ccccc1N1CCCC1 |  | inactive: 1.6%
O=C(CCCn1c(=S)[nH]c2cc3c(cc2c1=O)OCO3)N1CCc2ccccc2C1 | inconclusive [inhibitor, single point] | 
Cc1ccc2[nH]c3c(NCc4ccco4)ncnc3c2c1 | inconclusive [inhibitor, single point] | 
COc1cc(OC)c(NC(=S)NCc2ccccc2)cc1Cl | inconclusive [inhibitor, single point] | 
C=CCNC(=S)N/N=C(\C)c1ccc(-n2ccnc2)cc1 | active: 7.08 µM | 
OC(CN1CCN(C(c2ccccc2)c2ccccc2)CC1)c1ccc(Br)cc1 (stereo unspecified) |  | inactive: 5.41%
Cc1ccccc1CN(c1ccc(C(=O)N2CCc3ccccc3C2)cc1)S(C)(=O)=O | inconclusive [inhibitor, single point] | 
CC(=O)c1sc(NC(=O)c2c(F)cccc2F)nc1-c1ccccc1 |  | inactive: -14.1%
O=C(CSc1ccc2ccccc2n1)N/N=C/c1ccccc1O | active: 3.16 µM | 
CC(=O)c1cccc(NS(=O)(=O)c2ccc(NC(=O)N3CCCCC3)cc2)c1 | active: 10 µM | 
COc1cccc(-c2cc(C(=O)Nc3cnn(Cc4ccc(F)cc4)c3)no2)c1 | inconclusive [inhibitor, partial curve, poor fit] | 
N/C(=N\OC(=O)Cc1ccc(-c2ccccc2)cc1)c1cccnc1 | inconclusive [inhibitor, single point] | 
CC(C)CSc1nc2c(=O)[nH][nH]c(=O)c2n1Cc1ccccc1 |  | inactive: -5.18%
O=C(/C=C\Nc1ccccc1Br)c1ccc2c(c1)OCO2 | inconclusive [inhibitor, single point] | 
Cc1ccc(-c2nnn(CC(=O)N(CC(=O)NC3CCCC3)c3ccc(F)c(Cl)c3)n2)o1 | inconclusive [inhibitor, single point] | 
Cc1ccc(NC(CNS(=O)(=O)c2ccc(Cl)cc2)c2ccccc2)cc1 (stereo unspecified) |  | inactive: -24.5%
COc1cccc2nc(-c3cccs3)nc(NN3C(=O)C=C(C)C3=O)c12 | active: 5.01 µM | 
O=S(=O)(c1ccc(S(=O)(=O)N2CCN(C/C=C/c3ccccc3)CC2)cc1)N1CCCC1 |  | inactive: -19.3%
COc1ccc(NC(=S)Nc2ccc(S(N)(=O)=O)cc2)c(C)c1 | inconclusive [inhibitor, partial curve] | 
O=c1[nH]c2ccccc2nc1/C=C/c1ccc(O)cc1 | inconclusive [inhibitor, single point] | 
COC(=O)C1=C(C)N(CCC2=CCCCC2)C(=O)C1 | inconclusive [inhibitor, single point] | 
Cn1c(=O)c(C(=O)CN2CCCc3ccccc32)c(N)n(Cc2ccccc2)c1=O | inconclusive [inhibitor, single point] | 
Cc1cc(C)nc(Nc2nc(=O)c3ccccc3s2)n1 | inconclusive [inhibitor, single point] | 
O=[N+]([O-])c1cnc(Sc2ccncn2)s1 | active: 3.16 µM | 
COc1cccc(C(=O)NC(=S)N2c3ccccc3CC2C)c1OC (stereo unspecified) | active: 14.1 µM | 

SMILES | Potency | activity, negative = inhibition
CCOC(=O)Cc1csc(NC(=O)c2ccc(Cl)s2)n1 | inconclusive [inhibitor, single point] | 
CCOc1cc(/C=C2/COc3ccccc3C2=O)ccc1OCC(=O)N(C)C | inconclusive [inhibitor, single point] | 
CC(/C=N/NC(=O)c1cc(-c2cccs2)[nH]n1)=C\c1ccccc1 | inconclusive [inhibitor, single point] | 
COc1ccccc1-n1c(CCn2nc(C)c(Br)c2C)n[nH]c1=S | inconclusive [inhibitor, single point] | 
S=C(NCC1CCCO1)Nc1ccc(Nc2ccccc2)cc1 (stereo unspecified) | inconclusive [inhibitor, single point] | 
S=C(NNC(=S)Nc1ccccc1)Nc1ccccc1 | inconclusive [activator, partial curve, poor fit] | 
CC(C)C[C@H](NC(=O)c1nc[nH]c1C(=O)N[C@@H](CC(C)C)C(=O)OC(C)(C)C)C(=O)OC(C)(C)C | active: 11.2 µM | 
COc1ccc(/C=N/Nc2nnc(C)n2N)cc1OC(C)=O | inconclusive [inhibitor, single point] | 
c1cc2c(cc1-c1cnc3n1CCC3)OCCO2 | inconclusive [inhibitor, single point] | 
N#C/C(=N\Nc1cccc2ccccc12)c1nnc2n1CCCCC2 | active: 3.16 µM | 
S=c1[nH]cc(-c2ccc(Cl)cc2)n1Cc1ccccc1 | active: 2.82 µM | 
CC1=CC2=NC(=O)/C(=C\c3cn(C)c4ccccc34)C(=N)N2O1 |  | inactive: -22.4%
O=C(COc1ccccc1)Nc1nnc(-c2ccc(F)cc2)o1 | active: 6.31 µM | 
CCC(=O)Nc1ccc2c(c1)C(=O)N(C1CCCCC1)C2=O |  | inactive: 1.95%
CNc1nc(-c2ccccc2)nc(-c2ccccc2)c1C#N |  | inactive: 16.4%
COc1cc(NS(=O)(=O)c2ccc(OC)c(C)c2C)c(OC)cc1Cl | active: 6.31 µM | 
S=C(NCc1cccc(Cl)c1)NCc1ccco1 | inconclusive [inhibitor, single point] | 
COc1ccc2nc3cccc(OC)c3nc2c1 | inconclusive [inhibitor, single point] | 
Cc1cccc(NC(=O)CN2C(=S)NC(C)(C)CC2C)c1C (stereo unspecified) | inconclusive [inhibitor, single point] | 
COc1cccc(/C(C)=N/Nc2ncc(Cl)cc2Cl)c1 | inconclusive [inhibitor, single point] | 
COc1ccc2[nH]cc(CCNc3ccnc(-c4ccc(N(C)C)cc4)n3)c2c1 | inconclusive [inhibitor, single point] | 
COc1cc(/C=C2/SC(=O)NC2=O)ccc1OCc1ccccc1 | inconclusive [activator, full curve, poor fit] | 
N#Cc1nc(-c2ccccc2F)oc1N1CCCCC1 |  | inactive: -0.346%
Cn1c(=N)n(CC(O)c2cccc3ccccc23)c2ccccc21 (stereo unspecified) |  | inactive: 3.88%
